Whole data set: some 2,900 compounds, median “NF-kB SEAP reporter activity, fold change vs agonist alone” near 0.99, cut for the highest 2% near 2.6. Some of the results follow.
Key:
RAW-Dual [1] = assay: NF-kB SEAP reporter activity, fold change vs agonist alone; cytotoxicity flag (confluency mask): not cytotoxic; higher = enhanced NF-kB activity
In short: (§1)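 Reporter activity is given as fold change relative to agonist-alone wells. To measure it, 50 nL of library stock was pin-tooled onto RAW-Dual macrophages (50,000 cells/well, DMEM, 384-well plates), a PRR agonist followed 1 h later, and cells stayed at 37 °C, 5% CO2. Twenty hours on, supernatant was assayed for IRF (QuantiLuc luminescence) and NF-κB (QuantiBlue, 620 nm absorbance), and wells under 70% of agonist-control IncuCyte confluency in both mask sets were marked cytotoxic.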

RAW-Dual [2] = assay: NF-kB SEAP reporter activity, fold change vs agonist alone; higher = enhanced NF-kB activity; settings: library stock concentration (final ~1000-fold dilution): 10 mM
In short: as §1

[3] = agonist: ODN 1826 (TLR9) 0.5 ug/mL
[4] = agonist: Pam2CSK4 (TLR2/6) 0.1 ug/mL
[5] = agonist: Pam3CSK4 (TLR2/1) 0.1 ug/mL
[6] = cytotoxicity flag (confluency mask): not cytotoxic, agonist: Imiquimod (TLR7) […]
[7] = cytotoxicity flag (confluency mask): not cytotoxic, agonist: MPLA (TLR4) […]

SMILES: CN1C2CCC1CC(=O)C2 (library stock concentration (final ~1000-fold dilution): 10 mM)
- NF-kB SEAP reporter activity (RAW-Dual [1]; agonist: LPS (TLR4) 0.1 ug/mL): 0.911
- NF-kB SEAP reporter activity (RAW-Dual [1]; [3]): 1.6
- NF-kB SEAP reporter activity (RAW-Dual [1]; [4]): 1
- NF-kB SEAP reporter activity (RAW-Dual [1]; [5]): 1.54

SMILES: CN1C2CCC1CC(=O)C2
- NF-kB SEAP reporter activity (RAW-Dual [2]; [6]): 1.66
- NF-kB SEAP reporter activity (RAW-Dual [2]; [7]): 1.16

SMILES: CN1C2CCC1CC(OC(=O)C(CO)c1ccccc1)C2 (stereo not given) (library stock concentration (final ~1000-fold dilution): 10 mM)
- NF-kB SEAP reporter activity (RAW-Dual [1]; agonist: LPS (TLR4) 0.1 ug/mL): 1.05
- NF-kB SEAP reporter activity (RAW-Dual [1]; [3]): 0.888
- NF-kB SEAP reporter activity (RAW-Dual [1]; [4]): 0.983
- NF-kB SEAP reporter activity (RAW-Dual [1]; [5]): 0.972

SMILES: CN1C2CCC1CC(OC(=O)C(CO)c1ccccc1)C2 (stereo not given)
- NF-kB SEAP reporter activity (RAW-Dual [2]; [6]): 0.848
- NF-kB SEAP reporter activity (RAW-Dual [2]; [7]): 0.97

SMILES: Cl.O=C(O)Cc1c[nH]cn1
- NF-kB SEAP reporter activity (RAW-Dual [2]; [6]): 0.935
- NF-kB SEAP reporter activity (RAW-Dual [2]; [7]): 1.05

SMILES: Cl.O=C(O)Cc1c[nH]cn1 (library stock concentration (final ~1000-fold dilution): 10 mM)
- NF-kB SEAP reporter activity (RAW-Dual [1]; agonist: LPS (TLR4) 0.1 ug/mL): 1.34
- NF-kB SEAP reporter activity (RAW-Dual [1]; [3]): 0.991
- NF-kB SEAP reporter activity (RAW-Dual [1]; [4]): 0.973
- NF-kB SEAP reporter activity (RAW-Dual [1]; [5]): 0.728

SMILES: CN1CCN(c2nc3ccccc3nc2Cl)CC1
- NF-kB SEAP reporter activity (RAW-Dual [2]; [6]): 0.895
- NF-kB SEAP reporter activity (RAW-Dual [2]; [7]): 0.911

SMILES: CN1CCN(c2nc3ccccc3nc2Cl)CC1 (library stock concentration (final ~1000-fold dilution): 10 mM)
- NF-kB SEAP reporter activity (RAW-Dual [1]; agonist: LPS (TLR4) 0.1 ug/mL): 0.814
- NF-kB SEAP reporter activity (RAW-Dual [1]; [3]): 0.702
- NF-kB SEAP reporter activity (RAW-Dual [1]; [4]): 0.784
- NF-kB SEAP reporter activity (RAW-Dual [1]; [5]): 0.902

SMILES: CCN1CC2(OC(=O)c3ccccc3NC(C)=O)CCC(OC)C34C1C(CC23)C1(O)CC(OC)C2CC4C1(O)C2OC (stereo not given)
- NF-kB SEAP reporter activity (RAW-Dual [2]; [6]): 0.95
- NF-kB SEAP reporter activity (RAW-Dual [2]; [7]): 1.06

SMILES: CCN1CC2(OC(=O)c3ccccc3NC(C)=O)CCC(OC)C34C1C(CC23)C1(O)CC(OC)C2CC4C1(O)C2OC (stereo not given) (library stock concentration (final ~1000-fold dilution): 10 mM)
- NF-kB SEAP reporter activity (RAW-Dual [1]; agonist: LPS (TLR4) 0.1 ug/mL): 0.919
- NF-kB SEAP reporter activity (RAW-Dual [1]; [3]): 0.941
- NF-kB SEAP reporter activity (RAW-Dual [1]; [4]): 1.19
- NF-kB SEAP reporter activity (RAW-Dual [1]; [5]): 1.06

SMILES: COc1cc2c(cc1OC)C13CCN4CC5=CCOC6CC(=O)N2C1C6C5CC43.COc1cc2c(cc1OC)C13CCN4CC5=CCOC6CC(=O)N2C1C6C5CC43.O.O.O.O.O.O.O.O=S(=O)(O)O (stereo not given) (library stock concentration (final ~1000-fold dilution): 10 mM)
- NF-kB SEAP reporter activity (RAW-Dual [1]; agonist: LPS (TLR4) 0.1 ug/mL): 0.96
- NF-kB SEAP reporter activity (RAW-Dual [1]; [3]): 1.07
- NF-kB SEAP reporter activity (RAW-Dual [1]; [4]): 1.01
- NF-kB SEAP reporter activity (RAW-Dual [1]; [5]): 1.04

SMILES: COc1cc2c(cc1OC)C13CCN4CC5=CCOC6CC(=O)N2C1C6C5CC43.COc1cc2c(cc1OC)C13CCN4CC5=CCOC6CC(=O)N2C1C6C5CC43.O.O.O.O.O.O.O.O=S(=O)(O)O (stereo not given)
- NF-kB SEAP reporter activity (RAW-Dual [2]; [6]): 0.935
- NF-kB SEAP reporter activity (RAW-Dual [2]; [7]): 0.999

SMILES: C/C(O)=C(\C#N)C(=O)Nc1cc(Br)ccc1Br
- NF-kB SEAP reporter activity (RAW-Dual [2]; [6]): 0.829
- NF-kB SEAP reporter activity (RAW-Dual [2]; [7]): 1.03

SMILES: C/C(O)=C(\C#N)C(=O)Nc1cc(Br)ccc1Br (library stock concentration (final ~1000-fold dilution): 10 mM)
- NF-kB SEAP reporter activity (RAW-Dual [1]; agonist: LPS (TLR4) 0.1 ug/mL): 1.11
- NF-kB SEAP reporter activity (RAW-Dual [1]; [3]): 1
- NF-kB SEAP reporter activity (RAW-Dual [1]; [4]): 1.11
- NF-kB SEAP reporter activity (RAW-Dual [1]; [5]): 0.974

SMILES: Cc1ccccc1-n1c(Cn2ncc3c(N)ncnc32)nc2cccc(C)c2c1=O
- NF-kB SEAP reporter activity (RAW-Dual [2]; [6]): 0.723
- NF-kB SEAP reporter activity (RAW-Dual [2]; [7]): 0.688

SMILES: Cc1ccccc1-n1c(Cn2ncc3c(N)ncnc32)nc2cccc(C)c2c1=O (library stock concentration (final ~1000-fold dilution): 10 mM)
- NF-kB SEAP reporter activity (RAW-Dual [1]; agonist: LPS (TLR4) 0.1 ug/mL): 0.522
- NF-kB SEAP reporter activity (RAW-Dual [1]; [3]): 0.674
- NF-kB SEAP reporter activity (RAW-Dual [1]; [4]): 0.581
- NF-kB SEAP reporter activity (RAW-Dual [1]; [5]): 0.613

SMILES: COc1ccc(CC2NCC(O)C2OC(C)=O)cc1 (stereo not given)
- NF-kB SEAP reporter activity (RAW-Dual [2]; cytotoxicity flag (confluency mask): cytotoxic (confluency <70% of control), agonist: Imiquimod (TLR7) […]): 0.133
- NF-kB SEAP reporter activity (RAW-Dual [2]; cytotoxicity flag (confluency mask): cytotoxic (confluency <70% of control), agonist: MPLA (TLR4) […]): 0.231

Reference: the supplement of paper PMC10037445
